Data from the supplement of paper PMC10126150.
Sequences with one replicate were seen in a single cluster, so their values are uncertain.

These sequences were tested on ATP (assay: switch fluorescence ratio, 500 uM ATP over buffer (Cy3 cluster intensity, sum of 5 cycles each) (fold (ratio)); higher = stronger signal-on switching upon ATP binding; sequences stand for … in TCGTCGGCAGCGTCAGATGTGTATAAGAGACAGTTTTTTTTTTTTTTTTTTTTTTTTT…TC). Settings: aptamer strand: ATP DNA aptamer (quencher-CACCTGGGGGAGTATTGCGGAGGAAGG + anchor), 100 nM annealed; ATP concentration: 500 uM; one replicate.
Procedure, shortened: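 Clusters with intensities outside 100-1000 RFU were excluded. The remaining Cy3-labelled switching-strand clusters on a modified Illumina MiSeq flow-cell had been annealed to 100 nM quencher-labelled ATP aptamer and imaged in selection buffer, then after 15 min with 500 uM ATP at 22 °C, for five cycles separated by NaOH stripping and re-annealing. The fluorescence ratio, averaged per switch-domain sequence, is each cluster's summed target-cycle Cy3 intensity over its summed buffer-cycle Cy3 intensity.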
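Further: ATP exposure 15 min at 22 °C before imaging.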

| Sequence | switch fluorescence ratio |
| --- | --- |
| GCTTTTGACC | 1 |
| GCTTTTGTTA | 1.01 |
| GGAAAAAATT | 1.01 |
| GGAAAAGTCA | 1.01 |
| GGAAAATCGG | 0.967 |
| GGAAAGGACG | 1.03 |
| GGAAATGCTC | 1.11 |
| GGAAATTGAT | 1.01 |
| GGAACAGTAT | 0.992 |
| GGAACATACG | 1.29 |
| GGAACCATAG | 1.06 |
| GGAACCATTG | 0.999 |
| GGAACGAAAT | 1.17 |
| GGAACGACTA | 1.03 |
| GGAACGCTT | 1.04 |
| GGAACGTATG | 1.04 |
| GGAACTCCCT | 1.05 |
| GGAACTCGTT | 1.02 |
| GGAAGACTTT | 1 |
| GGAAGCAAGT | 1.07 |
| GGAAGGGGAG | 1.02 |
| GGAATAAGTG | 1 |
| GGAATCATGA | 0.968 |
| GGAATCTCGT | 0.993 |
| GGAATGAATA | 0.955 |

| Sequence | switch fluorescence ratio |
| --- | --- |
| GGAATGGATG | 1.01 |
| GGAATTCAGC | 1.02 |
| GGAATTTACG | 1.04 |
| GGAATTTATG | 1.01 |
| GGACACAAAG | 1.03 |
| GGACACAGCT | 1.07 |
| GGACAGTAGT | 1.05 |
| GGACATATAC | 1.79 |
| GGACATGAAC | 1.06 |
| GGACATTATC | 0.995 |
| GGACCCCCGC | 1.33 |
| GGACCCTATG | 0.957 |
| GGACCGTCA | 0.992 |
| GGACCTTCTG | 1.01 |
| GGACGAAAGT | 1.03 |
| GGACGCAGCT | 1.27 |
| GGACGGAGTA | 0.986 |
| GGACGGGTAT | 1.03 |
| GGACGTATAT | 1.19 |
| GGACGTGGTT | 0.965 |
| GGACGTTGTA | 0.991 |
| GGACTCGCAG | 1 |
| GGACTGGGTT | 0.99 |
| GGACTGTGTT | 0.983 |
| GGAGAAAACT | 0.994 |

| Sequence | switch fluorescence ratio |
| --- | --- |
| GGAGAAAGTT | 0.982 |
| GGAGAAGAT | 1.04 |
| GGAGAATCTT | 1.03 |
| GGAGAATGAT | 1.01 |
| GGAGATAACC | 1.03 |
| GGAGATTACC | 1.01 |
| GGAGATTGGC | 1.05 |
| GGAGCACCA | 1.07 |
| GGAGCCAGGT | 1.08 |
| GGAGCCAGTT | 1.05 |
| GGAGCGTATG | 0.991 |
| GGAGCTTGTG | 1.01 |
| GGAGGAAAAA | 0.999 |
| GGAGGAGGAG | 0.905 |
| GGAGGAGTGG | 0.955 |
| GGAGGATGTG | 1.02 |
| GGAGGCACAT | 1.08 |
| GGAGGCTGCT | 1.04 |
| GGAGGCTTAC | 1.44 |
| GGAGGGCGAT | 1 |
| GGAGGGTTCC | 1.03 |
| GGAGGTAATG | 1.01 |
| GGAGGTTCAA | 0.976 |
| GGAGGTTTTG | 0.954 |
| GGAGTAGCCA | 0.979 |

| Sequence | switch fluorescence ratio |
| --- | --- |
| GGAGTAGGCC | 0.923 |
| GGAGTCGTGT | 1 |
| GGAGTCTCAC | 0.993 |
| GGAGTGATGT | 1.09 |
| GGATAATTCG | 1.07 |
| GGATAGAGG | 0.96 |
| GGATAGTTCG | 1.06 |
| GGATATACGG | 1 |
| GGATATTTGT | 1.03 |
| GGATATTTT | 0.955 |
| GGATCAACTA | 1.05 |
| GGATCACCTA | 1 |
| GGATCAGATC | 0.998 |
| GGATCATCTG | 1.04 |
| GGATCCGGTC | 0.976 |
| GGATCGGGCC | 1.01 |
| GGATCTCTGC | 0.967 |
| GGATCTTAGG | 0.98 |
| GGATGAAGTG | 1.02 |
| GGATGCAACG | 1.04 |
| GGATGGGTCC | 1 |
| GGATGTAATT | 1 |
| GGATGTCACG | 1 |
| GGATTATTAC | 0.912 |
| GGATTCAAGC | 1.02 |

| Sequence | switch fluorescence ratio |
| --- | --- |
| GGATTCAATG | 0.989 |
| GGATTCCGCC | 1.39 |
| GGATTCGCGA | 0.963 |
| GGATTCGGGG | 1.02 |
| GGATTGAGA | 1.03 |
| GGATTGTCCA | 0.952 |
| GGATTGTGTG | 0.954 |
| GGATTTAACA | 0.948 |
| GGATTTGATC | 1.03 |
| GGCAAAAAAT | 0.977 |
| GGCACCAGGG | 1.24 |
| GGCACCATTA | 1.03 |
| GGCACGAACG | 1.26 |
| GGCACGAGGG | 0.983 |
| GGCACTGGAG | 1.06 |
| GGCACTTCCC | 1.21 |
| GGCACTTTAC | 1.52 |
| GGCAGAGC | 1.01 |
| GGCAGAGGAC | 1.02 |
| GGCAGCTCGC | 0.961 |
| GGCAGCTTAT | 1.02 |
| GGCAGTGCAG | 0.967 |
| GGCAGTGTTC | 0.98 |
| GGCATAGGAA | 0.995 |
| GGCATCCATG | 0.979 |

| Sequence | switch fluorescence ratio |
| --- | --- |
| GGCATCGCGC | 1.01 |
| GGCATCTAGC | 0.986 |
| GGCATGTGTG | 1.01 |
| GGCATTACAG | 0.989 |
| GGCATTCAGG | 1.01 |
| GGCCAATGGT | 1.01 |
| GGCCACGAGG | 1.03 |
| GGCCAGGAGG | 0.948 |
| GGCCAGGTTT | 1.05 |
| GGCCATAGTT | 0.993 |
| GGCCATTTCT | 1.01 |
| GGCCCACCAC | 1 |
| GGCCCCCTAC | 1.13 |
| GGCCCCGTTC | 1.02 |
| GGCCCCTTGT | 1.04 |
| GGCCCCTTTG | 1.04 |
| GGCCCGAAGG | 0.962 |
| GGCCCTGCCC | 1.03 |
| GGCCGAAATG | 1.01 |
| GGCCGGATAA | 0.99 |
| GGCCGGTAGA | 1.02 |
| GGCCTCAATT | 1.01 |
| GGCCTCGGGA | 1.04 |
| GGCCTCTACA | 1.02 |
| GGCCTGCTTA | 0.967 |

| Sequence | switch fluorescence ratio |
| --- | --- |
| GGCCTTCTAC | 1.19 |
| GGCGAAAAAC | 1.02 |
| GGCGAATGG | 0.959 |
| GGCGACAGGC | 1.02 |
| GGCGATAGAC | 1.01 |
| GGCGCAAAGG | 1.21 |
| GGCGCAAGTC | 1.48 |
| GGCGCACCCG | 1.01 |
| GGCGCCACAA | 0.979 |
| GGCGCCCAAG | 0.997 |
| GGCGCGAAAT | 1.06 |
| GGCGCGTCGT | 1.01 |
| GGCGCTGCAC | 1.13 |
| GGCGCTGTAT | 0.995 |
| GGCGGAAACC | 1.03 |
| GGCGGACGAG | 0.982 |
| GGCGGAGCGT | 0.961 |
| GGCGGAGTTG | 1.03 |
| GGCGGCACGG | 0.997 |
| GGCGGCATGC | 1.05 |
| GGCGGCTCTG | 0.988 |
| GGCGGGACCA | 1.05 |
| GGCGGGCAAC | 1.01 |
| GGCGGGCTTT | 1.01 |
| GGCGGGGTCC | 1.03 |

| Sequence | switch fluorescence ratio |
| --- | --- |
| GGCGGTCCTA | 0.992 |
| GGCGTAAGTA | 1.04 |
| GGCGTAGGT | 0.984 |
| GGCGTAGTCG | 1 |
| GGCGTATAAA | 0.988 |
| GGCGTCATGC | 0.979 |
| GGCGTGGGTA | 0.998 |
| GGCGTTATCG | 1.02 |
| GGCTAAACAT | 1.02 |
| GGCTAAGAAG | 1.01 |
| GGCTAGGGTG | 1.12 |
| GGCTAGTGGT | 0.964 |
| GGCTATATCT | 1.03 |
| GGCTATC | 1.02 |
| GGCTATCAGC | 1.01 |
| GGCTATCGCA | 1.05 |
| GGCTCAGCTT | 1.08 |
| GGCTCGAAT | 0.978 |
| GGCTCGTACA | 1.01 |
| GGCTCGTGCG | 1 |
| GGCTCTGATC | 1 |
| GGCTCTTCGC | 1.03 |
| GGCTGAGTGC | 1.02 |
| GGCTGATCAG | 1.03 |
| GGCTGATGA | 0.973 |
